PubChem BioAssay AID1345082 (National Center for Advancing Translational Sciences (NCATS), 2018)
In all, about 94,000 compounds went through this assay and about 4,000 (4.3%) were called active. The inconclusive results got no clear call from the source; some entries with a clear call stand among them for comparison. Calls come from the whole dose curve; as a rule, active = well fitted inhibition curve with a large enough effect; inconclusive = small, poorly fitted or top-dose-only effect; inactive = no such curve, though single readings can be large or run the other way. Potencies beside an inconclusive call are fits to weak or partial responses and may not hold up.
Potency is the fitted concentration of half-maximal effect; tags give direction and shape of the fitted curve.

Test: Cytotoxic Profiling in NIH 3T3 Cell Line of Diverse Libraries Using Quantitative High-Throughput Screening; note: nearly all actives have a fitted effect of over 55% in size
Details: NIH 3T3 viability, CellTiter-Glo ATP luminescence, 48-72 h; series mostly up to 96.7 µM
Procedure, shortened: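 ATP-dependent luminescence (CellTiter-Glo) served as the viability signal for NIH 3T3 cells treated with compound for 48 or 72 hr at 37 °C.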
In the case of `COc1ccc(C2(c3nc(C4CC(=O)N(C5CCCCC5)C4)no3)CC2)cc1` (stereo not drawn), the Potency was inconclusive: 44.7 µM [inhibitor, partial curve, poor fit].
With `CN(C(=O)CN1C(=O)NC2(CCCCC2)C1=O)C1CCCCC1` the Potency was “inactive”.
With `CN1Cc2ncnc(NCCc3ccc(F)cc3)c2CN(c2ccc(Cl)cc2)C1=O` the Potency was inconclusive: 39.8 µM [inhibitor, partial curve, poor fit].
For `COc1ccc(N2CC(C(=O)N3CCC(C(=O)NCc4ccc5c(c4)OCO5)C3)NC2=O)cc1` (stereo not drawn), the Potency was “inactive”.
In the case of `CC(C)Oc1cccc2c1c(NC(=O)c1cccnn1)nn2Cc1ccccc1`, the Potency was inconclusive: 50.1 µM [inhibitor, partial curve, poor fit].
For `Cc1noc(C)c1[S+](=O)([O-])N1CCCC1C(=O)N1CCC(c2ccccc2)CC1` (stereo not drawn), the Potency was inconclusive: 50.1 µM [inhibitor, partial curve, poor fit].
With `O=C(NCc1ccccn1)c1ccc2nnc(-c3ccc(F)cc3)n2c1` the Potency was “inactive”.
In the case of `COc1cccc(-c2ccc(CN3CCCC3C(=O)NCc3ccccc3)cc2)c1` (stereo not drawn), the Potency was active: 39.8 µM.
With `COCC1CN(Cc2ccc(OC(F)(F)F)cc2)CC12CCNCC2` (stereo not drawn) the Potency was inconclusive: 50.1 µM [inhibitor, partial curve, poor fit].
With `Clc1ccccc1CNC[C@H]1Cn2cc(-c3ccccc3)nc2CO1` the Potency was inconclusive: 89.1 µM [inhibitor, partial curve, poor fit].
With `Cc1ccc2c(n1)O[C@@H](COCc1ccccc1)CN(Cc1cccs1)C2=O` the Potency was active: 25.1 µM.
With `CCN(CCNC(=O)CN1CC2CC(C1)[C@H]1CCCC(=O)N1C2)Cc1ccccc1` (stereo partly drawn) the Potency was “inactive”.
For `Cc1nn(-c2ccccc2)c2c1C(C(C)C)N(C1CCN(C(=O)c3ccccc3Cl)CC1)C2=O` (stereo not drawn), the Potency was inconclusive: 39.8 µM [inhibitor, partial curve].
In the case of `O=C(NCC1CC1)C1CCN(c2nc3ncccc3o2)CC1`, the Potency was “inactive”.
For `Cn1ccnc1CN1CCC2(CC1)COCCN2C(=O)OCc1ccccc1`, the Potency was inconclusive: 79.4 µM [inhibitor, partial curve, poor fit].
With `COCc1nc(-c2ccc(OC3CCN(C(=O)c4n[nH]c5ccccc45)C3)cc2)no1` (stereo not drawn) the Potency was inconclusive: 14.1 µM [inhibitor, full curve].
With `Cc1ccc(C)c(C(=O)NCc2nnc3ccc(-c4ccc(C)c(C)c4)nn23)c1` the Potency was inconclusive: 70.8 µM [inhibitor, single point].
With `Cc1ccc(-c2noc([C@@H]3CCCN3C(=O)Cc3ccccc3Cl)n2)cc1` the Potency was inconclusive: 44.7 µM [inhibitor, partial curve, poor fit].
